Laboratory results reported in PubChem BioAssay AID488969 (Vanderbilt High Throughput Screening Facility, 2010).
The full ranking holds about 110,000 compounds; the median of “z-score” is about -0.1, and the highest 2% start at about 2. The list shows a part of the results.

Target: Metabotropic glutamate receptor 8 (Rattus norvegicus) (UniProt P70579)
Assay: mGluR8 Gi/Go-coupled signaling modulation – cell-based, rat, thallium flux, HTS, primary screen (AID 488969)
Details: HEK293 rat mGluR8, GIRK (G protein-gated inwardly rectifying potassium channel) thallium flux, FluoZin2; at 10 µM; stronger effect = higher value; submaximal glutamate (EC20) added with thallium

Sequence of UniProt P70579 (P70579 whole entry, looked up): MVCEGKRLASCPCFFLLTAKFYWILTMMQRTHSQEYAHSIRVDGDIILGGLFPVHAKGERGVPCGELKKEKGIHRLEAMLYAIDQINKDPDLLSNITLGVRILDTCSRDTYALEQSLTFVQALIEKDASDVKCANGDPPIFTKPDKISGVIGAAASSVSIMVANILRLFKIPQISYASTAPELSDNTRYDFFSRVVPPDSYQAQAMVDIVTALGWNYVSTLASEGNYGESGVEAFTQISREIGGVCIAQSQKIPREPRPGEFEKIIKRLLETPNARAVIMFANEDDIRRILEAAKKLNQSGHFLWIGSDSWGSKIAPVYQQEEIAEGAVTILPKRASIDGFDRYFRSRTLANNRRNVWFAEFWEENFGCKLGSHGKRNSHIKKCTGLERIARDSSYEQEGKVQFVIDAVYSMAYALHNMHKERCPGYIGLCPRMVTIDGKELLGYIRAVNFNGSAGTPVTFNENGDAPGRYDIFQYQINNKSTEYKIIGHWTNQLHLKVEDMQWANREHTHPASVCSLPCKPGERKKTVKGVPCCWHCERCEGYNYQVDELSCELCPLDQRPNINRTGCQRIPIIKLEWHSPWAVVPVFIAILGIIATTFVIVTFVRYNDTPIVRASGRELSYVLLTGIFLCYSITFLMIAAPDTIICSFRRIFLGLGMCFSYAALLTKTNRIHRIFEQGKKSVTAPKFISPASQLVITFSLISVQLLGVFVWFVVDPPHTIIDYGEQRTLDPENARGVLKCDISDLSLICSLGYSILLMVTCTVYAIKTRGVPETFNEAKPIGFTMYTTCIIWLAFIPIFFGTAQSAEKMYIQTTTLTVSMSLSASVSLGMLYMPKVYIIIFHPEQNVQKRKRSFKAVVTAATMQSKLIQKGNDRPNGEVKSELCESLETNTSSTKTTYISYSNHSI

| SMILES | z-score |
| --- | --- |
| Cc1cnn(-c2cc(N/N=C/c3ccccc3Cl)ncn2)c1 | -0.0708 |
| CN(C)/C=C1\C(=O)N(c2ccc(Oc3ccccc3)cc2)CS1=O (stereo not given) | -0.175 |
| CCCOC(=O)C1[C@H]2C(=O)N(C(C)c3ccc(OC)cc3)C[C@]23C=C[C@H]1O3 (stereo not given in full) | 0.656 |
| O=C(CNC(c1ccccc1)c1ccccc1)Nc1ccccc1-c1ccccc1 | -0.705 |
| O=C(Cn1c(=O)sc2ccccc21)Nc1ccc(S(=O)(=O)N2CCCC2)cc1 | -0.343 |
| O=C1COc2ccccc2CN1 | -0.24 |
| CC(C)OC(=O)CSc1nnc(-c2ccc(Cl)cc2Cl)n1N | -0.215 |
| COc1ccccc1NC(=O)N(Cc1ccccc1)c1ccccn1 | -0.245 |
| Cc1csc(NC(=O)Cc2ccccc2[N+](=O)[O-])n1 | 1.01 |
| O=C1CCCC(O)=C1C=Nc1ccc2c(c1)oc1ccccc12 | -0.13 |
| Clc1ccc(OCCSc2nnnn2C2CCCCC2)cc1 | 0.215 |
| CCCCOCCCNC(=O)c1ccc(OC)cc1 | 0.194 |
| Cc1cccc2nc(CSc3nc4ccccc4o3)cn12 | 1.34 |
| Cc1cc(C)n(-c2nc3ccccc3c(=O)n2OCc2ccc(Cl)cc2)n1 | -0.0989 |
| CCP(=O)(c1ccccc1)C(C)(C)O (stereo not given) | 0.266 |
| COc1ccc(NC(=O)CSc2nnc(Cc3cccn3C)n2-c2ccc(C)cc2)cc1OC | 2.03 |
| COCc1cc(Sc2c(Cl)cccc2Cl)nc(-c2ccccc2)n1 | -0.0425 |
| CC(C)=CC(=O)NCc1c(Cl)cccc1-n1cccc1 | 0.225 |
| Cc1ccc(SCCCn2cncn2)cc1 | -0.0811 |
| Fc1ccc(N2CCN(c3ncnc4c3nnn4Cc3ccccc3Cl)CC2)cc1 | -1.25 |
| Cc1ccc(-c2noc(CN(C(=O)c3cccc(Br)c3)C(C)C)n2)cc1 | 0.0303 |
| CC1CCCN(C(=O)c2ccc(COc3ccccc3Br)cc2)C1 (stereo not given) | -0.14 |
| Cc1c(C(C)(C)C)c(C=S)n2ccccc12 | -0.503 |
| CCCNc1ccc(S(=O)(=O)N(C(C)C)C(C)C)cn1 | -0.175 |

| SMILES | z-score |
| --- | --- |
| O=C1COc2ccc(C(=O)CSc3nnc(Cc4cccs4)n3-c3ccc(Cl)cc3)cc2N1 | 0.154 |
| COc1ccc(C(=O)/C(=C\c2ccco2)N2C=CC=CC2=C(C#N)C#N)cc1 | 0.26 |
| O=C(CCn1nc(-c2ccc(Cl)cc2)ccc1=O)NCCCN1CCCCCC1 | -0.866 |
| CCn1ncc(/C=N\NC(=O)c2ccc3c(c2)c(C)c(C)n3Cc2ccccc2)c1C | -0.321 |
| COc1ccc(NS(=O)(=O)c2ccc(N)c(C(=O)O)c2)cc1 | 0.525 |
| Nc1ccc2c3c(cccc13)CC2 | 0.094 |
| Cc1ccc(/C=N/NC(=O)CSc2nnc(-c3ccc(Cl)cc3)n2-c2ccc(Cl)cc2)o1 | -0.0979 |
| Cc1ccc(-c2ccc(=O)n(CC(=O)Nc3cccc(C(=O)N4CCN(C)CC4)c3)n2)cc1 | 0.353 |
| Cc1ccc(-n2nnnc2SCC(=O)c2c(N)n(CC(C)C)c(=O)n(C)c2=O)cc1 | 0.951 |
| CC1(CC(=O)N/N=C/c2cc(Br)c(O)cc2O)OCCO1 | 0.149 |
| Cc1nnn(C23CC4CC(CC(C4)C2)C3)n1 | -0.708 |
| CCOC(=O)c1sc(NC(=S)NC(=O)c2ccccc2Cl)c(C(=O)OCC)c1C | 0.214 |
| O=[N+]([O-])c1cccc(S(=O)(=O)Nc2nc3ccccc3nc2Nc2cccc(S(=O)(=O)N3CCCCC3)c2)c1 | -0.505 |
| COc1ccc(Cc2nc(C(=O)Nc3ccc(Cl)cc3)cs2)cc1 | -0.178 |
| CC(C)CC(NC(=O)C1CCC(C)CC1)C(=O)N1CCN(c2ccccn2)CC1 (stereo not given) | -0.0421 |
| COc1cc(C(C[N+](=O)[O-])c2c(C)[nH]c3ccccc23)cc(OC)c1OC (stereo not given) | -0.538 |
| O=C(Nc1cccc(OC(=O)c2cccnc2)c1)c1cccnc1 | -0.255 |
| O=C(COC(=O)CCc1nc2ccccc2n1-c1ccccc1)Nc1ccc(N2CCCCC2)cc1 | -0.204 |
| O=C(COC(=O)CCC1CCCC1)Nc1nc2c(F)c(F)c(F)cc2s1 | 2.48 |
| CC(C)(C)n1nc2c(c1NC(=O)Cc1cccc3ccccc13)CS(=O)C2 (stereo not given) | 0.219 |
| CC1(C)Cc2cccc(OCC(N)=O)c2O1 | 0.0489 |
| COc1ccc2c(c1)CCc1c(C(=O)Nc3ccn(Cc4ccc(C)cc4)n3)noc1-2 | -0.0713 |
| CC(C)CNC(=O)c1ccc(COc2ccc(Cl)cc2Cl)o1 | -0.116 |
| CN(C)c1ccc(C(=O)OCc2ccc(Br)cc2)cc1 | -0.588 |

| SMILES | z-score |
| --- | --- |
| NC(=S)N/N=C/c1ccc(-c2cc(Cl)ccc2Cl)o1 | 2.21 |
| COC(=O)c1ccc(NS(=O)(=O)N(C)C)cc1 | 0.388 |
| CC(=O)N(CC1CCCO1)C1(C(=O)NC2CCCC2)CCCCC1 (stereo not given) | 0.278 |
| Cc1ccc(NC(=O)CSCCc2ccccn2)nc1 | 0.022 |
| Cc1ccc2cc(CN(CCN3CCOCC3)Cc3nnnn3Cc3ccco3)c(=O)[nH]c2c1C | -0.297 |
| CCOc1nc(Nc2ccc(OC)c(Cl)c2)nc(OCC)n1 | -0.625 |
| COc1ccc(-n2c(NC(=O)c3ccco3)c(C#N)c3nc4ccccc4nc32)cc1 | -0.0793 |
| CC(=O)Nc1ccc(S(=O)(=O)N2CCN(c3nc(NC4CCCC4)c4ccccc4n3)CC2)cc1 | -0.56 |
| Cc1nnc(NC(=O)CSc2nnc(CNC(=O)C34CC5CC(CC(C5)C3)C4)n2C2CCCCC2)s1 | -0.17 |
| CC(=O)NC1C(=O)N(C)c2ccc(Br)cc21 (stereo not given) | 0.175 |
| CCCCN(Cc1cc2ccccc2[nH]c1=O)C(=O)c1ccccn1 | 0.0191 |
| Brc1cccc(-c2n[nH]c(-c3ccccc3)n2)c1 | 0.531 |
| CCOc1cc(S(=O)(=O)NC2CC(C)(C)NC(C)(C)C2)ccc1F | -0.0984 |
| COc1ccc(Nc2nc(-c3sc(NC(C)=O)nc3C)cs2)cc1 | -1.8 |
| COc1ccc(NC(=O)CSc2nnc(C3CCCCC3)o2)c(OC)c1 | 1.08 |
| CN(CC(=O)Nc1ccc(F)c(F)c1)S(=O)(=O)c1cccc2nsnc12 | 0.131 |
| CC(C(=O)NC1CCCc2ccccc21)N1CCN(c2ccc(F)cc2)CC1 (stereo not given) | -0.363 |
| COc1ccc(-n2ncc3c(NCc4cccs4)ncnc32)cc1 | -2.44 |
| Cc1cc(C)cc(NC(=O)CSc2nc3c(oc4ccccc43)c(=O)n2-c2ccccc2)c1 | -0.312 |
| CN(CCCC(=O)Nc1ccncc1)S(=O)(=O)c1ccc(Cl)cc1 | -0.0633 |
| COc1cc(NS(=O)(=O)c2cccc3nsnc23)cc(OC)c1 | -0.141 |
| COc1cccc(Nc2nc(-c3cccc(N4C(=O)c5ccccc5C4=O)c3)cs2)c1 | 0.0481 |
